Measured values reported in publication PMC4336329 (PLoS ONE, 2015).
About 14,000 (4.5%) of roughly 310,000 compounds showed an effect of 50% or more. Effects have a minus sign here. The list shows a part of the results.

target: human ether-à-go-go-related gene (hERG) potassium channel (human, UniProt Q12809); assay: primary screen, population patch clamp on CHO cells stably expressing hERG
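Note: peak tail current of the secondary pulse compared with the same well before compound.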

Chain of human ether-à-go-go-related gene (hERG) potassium channel (Q12809 whole entry, looked up): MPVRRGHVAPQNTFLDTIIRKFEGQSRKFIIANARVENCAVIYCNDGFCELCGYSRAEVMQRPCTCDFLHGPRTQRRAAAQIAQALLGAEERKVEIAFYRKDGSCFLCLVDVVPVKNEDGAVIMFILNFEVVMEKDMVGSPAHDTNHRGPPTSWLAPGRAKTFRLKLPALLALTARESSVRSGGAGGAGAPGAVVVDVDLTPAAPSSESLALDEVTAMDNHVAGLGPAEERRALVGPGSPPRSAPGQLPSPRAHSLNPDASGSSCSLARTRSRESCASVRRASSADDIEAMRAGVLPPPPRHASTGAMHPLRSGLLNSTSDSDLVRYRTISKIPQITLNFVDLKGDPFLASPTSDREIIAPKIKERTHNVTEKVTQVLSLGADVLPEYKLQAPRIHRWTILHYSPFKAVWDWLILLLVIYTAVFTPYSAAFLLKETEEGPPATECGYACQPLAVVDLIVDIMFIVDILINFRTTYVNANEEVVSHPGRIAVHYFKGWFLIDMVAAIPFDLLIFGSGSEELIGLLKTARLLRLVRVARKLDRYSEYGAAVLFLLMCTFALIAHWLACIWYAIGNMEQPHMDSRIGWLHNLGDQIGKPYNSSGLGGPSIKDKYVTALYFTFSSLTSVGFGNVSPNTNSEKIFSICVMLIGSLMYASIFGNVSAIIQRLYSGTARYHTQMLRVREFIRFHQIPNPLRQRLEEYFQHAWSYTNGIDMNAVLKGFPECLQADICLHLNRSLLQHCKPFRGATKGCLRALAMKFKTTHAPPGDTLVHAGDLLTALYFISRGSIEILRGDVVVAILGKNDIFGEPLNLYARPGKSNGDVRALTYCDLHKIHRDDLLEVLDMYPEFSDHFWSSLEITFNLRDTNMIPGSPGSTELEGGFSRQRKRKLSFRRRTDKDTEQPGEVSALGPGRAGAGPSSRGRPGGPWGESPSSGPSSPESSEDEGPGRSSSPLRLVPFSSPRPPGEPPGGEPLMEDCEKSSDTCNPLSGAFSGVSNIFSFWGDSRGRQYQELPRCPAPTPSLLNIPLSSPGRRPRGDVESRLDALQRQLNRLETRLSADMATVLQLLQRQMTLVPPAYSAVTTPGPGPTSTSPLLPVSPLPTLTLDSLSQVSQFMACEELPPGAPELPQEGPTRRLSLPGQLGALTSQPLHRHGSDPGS

SMILES | hERG current change (%, negative = inhibition) at 10uM [%]
O=C1c2ccccc2NC(c2ccc(O)c(O)c2)N1c1ccccc1Cl (stereo not drawn) | 19.4
Cc1cccc(Cn2c(NCC(C)O)nc3c2c(=O)n(C)c(=O)n3C)c1 (stereo not drawn) | 9.86
COc1ccccc1-c1c(C)nn2c(N3CCN(Cc4ccccc4)CC3)cc(C)nc12 | 4.33
Cc1ccc(/C=C/S(=O)(=O)Nc2ccc(C)cc2)cc1 | -7
CCOC(=O)CS(=O)(=O)c1ccc(C(F)(F)F)cn1 | -8.78
CCOC(=O)C1(CCCc2ccccc2)CCN(S(=O)(=O)N(C)C)CC1 | -4.73
Cc1ccccc1S(=O)(=O)Cc1ccc(C(=O)NCc2ccccc2)o1 | -33.3
COc1ccc(CNC(=O)C2(C)Cc3ccccc3C(=O)O2)cc1 (stereo not drawn) | 14.2
CC1Cc2ccccc2N1S(=O)(=O)c1cccc(C(=O)OCC(=O)NCc2ccco2)c1 (stereo not drawn) | -6.65
Cc1ccsc1CNC(=O)c1c(-c2ccccc2)noc1C | 1.19
O=C1CC(N2CCN(c3ccc(Cl)c(Cl)c3)CC2)C(=O)N1 (stereo not drawn) | -16.4
Cc1cc(C)n(CC(=O)N/N=C/c2ccc3c(c2)OCO3)n1 | 3.93
Cc1sc(NC(=O)c2ccco2)c(C(c2ccncc2)N2CCOCC2)c1C (stereo not drawn) | -37.1
CC(C)NC(=O)CSc1nc(N)c(NC(=O)c2ccco2)c(=O)[nH]1 | 14.7
Cc1cccc2cc(COC(=O)c3cccs3)c(=O)[nH]c12 | -3.88
c1cc(-c2nnc3sc(C4CCCCC4)nn23)ccn1 | -42.8
CCOC(=O)c1oc2ccccc2c1COC(=O)C(C)NC(=O)c1ccco1 (stereo not drawn) | -16.5
CCN(C(=O)CCc1ccccc1)C1CCCCC1 | 10.2
Cc1ccc(S(=O)(=O)c2ccc(NC(=O)c3c(F)cccc3F)cc2)cc1 | 16.8
Cc1csc(NC(=O)CSc2nnc(NC(=O)C3CC(=O)N(c4ccccc4)C3)s2)n1 (stereo not drawn) | 7.17
Cc1ccc(N2C(=O)C3NN=C(C(=O)OCc4ccccc4)C3C2=O)cc1 (stereo not drawn) | 0.882
O=C(C1=C(O)C(=O)N(c2ncccn2)C1c1ccc(F)cc1)c1ccco1 (stereo not drawn) | 16.6
CCCCOC(=O)Nc1nc2ccc(OC)cc2s1 | 5.33

SMILES | hERG current change (%, negative = inhibition) at 10uM [%]
COc1ccc(-c2n[nH]c(=S)n2CC(C)C)cc1 | 13
Nn1c(Nc2ccccc2)nc2ccccc21 | -1.26
COc1ccccc1Nc1nc(NCC(C)C)nc(N)c1[N+](=O)[O-] | 13.7
CCn1c(COC(=O)CNC(=O)c2ccccc2)nc2cc(S(=O)(=O)N(C)C)ccc21 | -8
COc1ccc(CCNC(=O)CCCCC(=O)NCCc2ccc(OC)cc2)cc1 | 17.4
CCOc1cccc(NC(=O)c2cnccc2C(F)(F)F)c1 | -46.4
O=C(c1ccccc1F)N1CCOCC1 | 32.4
O=C(N/N=C/C(Cl)=C/c1ccccc1)c1ccncc1 | -6.84
O=C(NNC(=S)Nc1ccccc1)C1CCCCC1 | 56.7
CC(C)c1nc(SCC(=O)N2CCCc3ccccc32)c2c(=O)n(C)c(=O)n(C)c2n1 | -10.1
OCc1nnn(-c2cccc(C(F)(F)F)c2)c1CO | 13.5
COc1cccc2c1OCC(CN1CCN(Cc3ccccc3F)C(CCO)C1)=C2 (stereo not drawn) | -19.3
COc1ccc(NC(=O)C2=C(C)NC(=O)NC2c2ccccc2[N+](=O)[O-])cc1 (stereo not drawn) | 4.47
O=C(N/N=C/c1ccco1)c1ccncc1 | 17.9
Cc1nc(-c2ccc(NC(=O)c3ccco3)cc2)cs1 | 4.13
Cc1ccccc1NCC(=O)N/N=C/c1c[nH]c2ccccc12 | 6.77
COc1cc(C)ccc1OCCOc1c(C)cccc1Cl | 2.01
Cc1cc(C2C(=O)C(C(=O)c3ccc(Cl)cc3)C(=O)CC2(C)C)on1 (stereo not drawn) | 3.97
O=C(CSc1nnnn1-c1cccc2c1CCCC2)N1CCOCC1 | -7.92
CC(C)[C@H](NC(=O)c1ccccc1)C(=O)OCC(=O)Nc1ccc(Cl)cc1C(F)(F)F | 9.75
COC(=O)C(CC(C)C)N1CCC(=O)c2ccccc2S1(=O)=O (stereo not drawn) | 4.93
COc1ccc(CC(=O)Nc2ccc(-c3cn4cccc(C)c4n3)cc2)cc1OC | -2.29
